# From the supplement of paper PMC12462457
# ± gives the standard deviation of the averaged measurements. The list shows a part of the results.
# System: OVCAR8
# Test: cell count relative to DMSO vehicle (fold change); OVCAR8 is a high-grade serous ovarian cancer line and CX-5461 an RNA polymerase I inhibitor; higher = more surviving senescent cells (less killing)
# Details: senescence inducer: CX-5461 3 µM 48 h, then 6 d recovery (CX senescent), exposure time 24 h
structure (smiles),measurement,setting,value
Cc1nc[nH]c1CN1CCN(C(=O)N[C@@H](CC(C)C)C(=O)O)[C@@H](Cc2ccccc2)C1=O,cell count,compound dose 1 µM,1.09 ± 0.27
same,cell count,compound dose 5 µM,0.924 ± 0.19
